Literature values in patent US10987332B2, “Sprayable aqueous composition comprising glyceryl trinitrate” (G. POHL-BOSKAMP GMBH & CO. KG, priority 2013, dated 2021).

How the values were obtained:
Sprague-Dawley rats [1] = settings: 5 DAYS RIP; during 90 min FPO; mean±SD
Sprague-Dawley rats [2] = settings: 5 DAYS RIP; during FPO; Lown classification
Sprague-Dawley rats [3] = settings: 5 DAYS RIP; micro-CT; mean±SD

SMILES	ST segment elevation (Sprague-Dawley rats [1])	rats with class 0 arrhythmias (Sprague-Dawley rats [2])	rats with class IIIb arrhythmias (Sprague-Dawley rats [2])	rats with class IVb arrhythmias (Sprague-Dawley rats [2])	Collateral diameters of ROI (Sprague-Dawley rats [3])
CC(=O)Oc1ccccc1C(=O)O [ASA, acetyl salicylic acid]	0.138±0.098 mV	–	–	–	–
O=[N+]([O-])O[C@H]1CO[C@H]2[C@@H]1OC[C@H]2O[N+](=O)[O-] [ISDN, isosorbide dinitrate]	0.062±0.027 mV	14.3%	28.6%	57.1%	148.2±11.3 μm
